Results reported in paper PMC4336329 (PLoS ONE, 2015).
Among all 310,000 compounds or so, about 2,200 (0.71%) showed an effect of 50% or more. Effects have a minus sign here. This is one part of the list.

What follows are compounds tested against human ether-à-go-go-related gene (hERG) potassium channel (human, UniProt Q12809) (assay: primary screen, population patch clamp on CHO cells stably expressing hERG).
Sequence of human ether-à-go-go-related gene (hERG) potassium channel (Q12809 whole entry, looked up): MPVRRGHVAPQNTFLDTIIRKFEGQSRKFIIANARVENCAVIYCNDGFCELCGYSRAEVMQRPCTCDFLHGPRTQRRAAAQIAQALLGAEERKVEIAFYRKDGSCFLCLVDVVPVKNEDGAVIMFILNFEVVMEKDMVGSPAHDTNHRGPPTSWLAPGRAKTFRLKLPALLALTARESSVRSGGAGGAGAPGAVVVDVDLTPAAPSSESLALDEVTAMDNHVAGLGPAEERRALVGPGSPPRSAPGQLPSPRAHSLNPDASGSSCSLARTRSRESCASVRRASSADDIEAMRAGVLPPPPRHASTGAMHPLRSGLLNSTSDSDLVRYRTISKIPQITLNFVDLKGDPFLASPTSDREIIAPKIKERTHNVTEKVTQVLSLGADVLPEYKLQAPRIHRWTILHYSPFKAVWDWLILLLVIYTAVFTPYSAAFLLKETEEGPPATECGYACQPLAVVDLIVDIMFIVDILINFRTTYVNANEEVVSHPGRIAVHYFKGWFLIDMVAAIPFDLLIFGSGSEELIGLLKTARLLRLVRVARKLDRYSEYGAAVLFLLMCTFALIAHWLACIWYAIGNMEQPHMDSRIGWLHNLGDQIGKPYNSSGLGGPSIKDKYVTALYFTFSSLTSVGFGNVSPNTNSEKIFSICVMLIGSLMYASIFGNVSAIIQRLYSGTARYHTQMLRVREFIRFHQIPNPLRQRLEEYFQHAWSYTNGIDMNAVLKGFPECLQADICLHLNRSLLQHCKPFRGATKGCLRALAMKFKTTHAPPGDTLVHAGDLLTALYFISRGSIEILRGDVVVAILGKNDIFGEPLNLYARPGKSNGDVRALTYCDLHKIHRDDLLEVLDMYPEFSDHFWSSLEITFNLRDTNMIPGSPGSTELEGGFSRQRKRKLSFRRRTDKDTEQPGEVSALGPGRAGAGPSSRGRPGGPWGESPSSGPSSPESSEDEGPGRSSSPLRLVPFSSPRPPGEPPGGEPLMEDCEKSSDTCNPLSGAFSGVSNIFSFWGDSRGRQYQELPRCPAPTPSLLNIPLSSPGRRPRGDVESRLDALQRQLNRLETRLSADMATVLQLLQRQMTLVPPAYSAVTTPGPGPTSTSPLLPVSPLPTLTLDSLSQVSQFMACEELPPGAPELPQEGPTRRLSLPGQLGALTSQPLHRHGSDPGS

| SMILES | hERG current change (%, negative = inhibition) at 1uM [%] |
| --- | --- |
| COc1ccc(OC)c(/C=N/NC(=O)Cn2ccnc2C)c1 | 12.2 |
| O=C(COC(=O)c1ccccn1)Nc1ccc2c(c1)OCO2 | 5.94 |
| CC(NC(=O)NC12CC3CC(CC(C3)C1)C2)c1ccc2c(c1)OCO2 (stereo not shown) | 19.7 |
| Cc1cc(NC(=O)C(C)SCC(=O)OC(C)C(=O)Nc2cccc(C#N)c2)no1 (stereo not shown) | -1.29 |
| CS(=O)(=O)c1cccc(S(=O)(=O)N2CCN(c3ccccn3)CC2)c1 | 10.6 |
| O=C(Cn1c[n+](CC(=O)c2ccc([N+](=O)[O-])cc2)cn1)c1ccc([N+](=O)[O-])cc1.[Br-] | 28.1 |
| O=C(COC(=O)c1cccs1)NCc1ccccc1 | 11.4 |
| CNc1ccc(Cl)nn1 | 4.11 |
| COc1ccc(-n2nc(C(=O)NCC(=O)NCc3ccco3)c3ccccc3c2=O)c(OC)c1 | 11 |
| CCOc1cc2nc3c4ccccc4n(C)c3nc2cc1OCC | 7.6 |
| O=C(NC1CCCC1)C1CCN(C(=O)NCc2ccccc2)CC1 | 11.3 |
| Cc1cc(C)cc(OCCNC(=O)c2ccc(Br)cc2)c1 | 14.7 |
| COc1ccccc1NS(=O)(=O)c1cccc(NC(=S)NCCN2CCOCC2)c1 | -3.43 |
| Cn1cccc1C(=O)C(=O)Nc1ccc(F)c(F)c1 | 2.72 |
| COCCN=C1OC(=O)N2C(=O)C3=C4[C@@H](C[C@H]5C(=O)N(c6ccccc6)C(=O)[C@H]5[C@H]4[C@@]12Cc1ccccc1)[C@H]1C(=O)N(c2ccccc2)C(=O)[C@H]1[C@H]3C | 14.3 |
| Cc1ccc(C(=O)N2CC(=O)Nc3ccc(F)cc3C2c2ccccc2)cc1 (stereo not shown) | 11.7 |
| O=C(Cc1ccc(F)cc1)N/N=C/c1ccc(-c2ccc(Cl)c(C(=O)O)c2)o1 | 39 |
| O=C(CCN1CCN(C/C=C/c2ccccc2)CC1)Nc1ccccc1 | -79 |
| Cc1c(Cl)c(C(=O)NNC(=S)NCc2ccco2)nn1C | 2.71 |
| Cc1cc(OCC(=O)NNC(=S)NC(=O)c2cccs2)ccc1Cl | 12.2 |
| COC(=O)C(CCSC)NC(=O)c1cc2c(n(-c3ccc(C)cc3)c1=O)CCCC2=O (stereo not shown) | 9.13 |
| CC(=O)Nc1ccc2c(c1)C(=O)N(c1ccc(C)cc1)C2=O | 4.7 |

| SMILES | hERG current change (%, negative = inhibition) at 1uM [%] |
| --- | --- |
| CCc1c(C(=O)NC(C)C2CCCO2)csc1C (stereo not shown) | -4.32 |
| CCc1nnc(NC(=O)CSc2nc(C)cs2)s1 | 11.8 |
| Cc1ccc(C(=O)N2CCN(c3ncnc4c(-c5ccccc5)nsc34)CC2)cc1 | 2.78 |
| CCOc1ccccc1NC(=O)c1ccccc1N(C)S(=O)(=O)c1ccc(C)cc1 | 1.87 |
| Cc1cc2ncn(C(=O)c3ccc(F)cc3)c2cc1C | 11.5 |
| O=C(O)c1ccc(N/N=C/C(Br)=C/c2ccccc2)cc1 | 10.8 |
| CCc1nnc(NC(=O)CSc2nnc(CNC(=O)c3cc(OC)c(OC)c(OC)c3)o2)s1 | 20.9 |
| O=C(Nc1ccc(F)cc1)C1CCCN(c2cnccn2)C1 (stereo not shown) | -13.4 |
| Cc1cc(Oc2ccc(C)c(Cl)c2)nc(SCC(=O)c2ccccc2)n1 | 9.85 |
| Oc1ccc(N2CCN(CC(O)c3ccccc3)CC2)cc1 (stereo not shown) | 16.2 |
| O=C(Nc1cccc2cccnc12)c1ccccc1Cl | 9.51 |
| COc1ccc2c(c1OC)C(=O)N(c1cccc(/C=C/C(=O)O)c1)C2 | 13.5 |
| Cc1ccc(C)c(C(=O)OCC(=O)Nc2ccc(N3CCOCC3)cc2)c1 | 12.4 |
| CCC1=NN2C(=N)/C(=C\c3ccc(OCCOc4ccccc4OC)cc3)C(=O)N=C2S1 | 10.4 |
| COc1cc(CCCN2C(=O)C(=O)NC[C@@H]2C(C)O)cc(OC)c1OC (stereo partly shown) | 9.42 |
| CCOC(=O)/C(C#N)=C\c1ccc(N2CCN(C/C=C/c3ccccc3)CC2)cc1 | 8.07 |
| COc1ccc(N2CCN(/C(=N\S(=O)(=O)c3ccc(C)cc3)Nc3nc(C)cc(C)n3)CC2)cc1 | 7.99 |
| Cc1cc(C)nc(Nc2n[nH]c(-c3ccccc3Br)n2)n1 | 14.4 |
| CCc1cc(=O)[nH]c(SCC(=O)N2CCOCC2)n1 | 2.76 |
| CC1CCC2(CC1)NC(=O)N(CC(=O)N1CCN(c3ccccc3)CC1)C2=O (stereo not shown) | 9.36 |
| COc1ccc(C(C(=O)NC2CCCC2)N(C(=O)Cc2cccs2)C2CC2)cc1OC (stereo not shown) | 11 |
| CCC(=O)c1ccc(OCC(=O)N2CCN(c3ccccn3)CC2)cc1 | -12.7 |

| SMILES | hERG current change (%, negative = inhibition) at 1uM [%] |
| --- | --- |
| COCC(C)NC(=O)c1oc2c(c1C)C1(CCC2)SCCS1 (stereo not shown) | 19.7 |
| CCC(Sc1ccccc1C(=O)O)C(=O)O (stereo not shown) | 13.6 |
| CCOC(=O)c1ccc2c(c1)N(C)C(=O)c1ccccc1S2 | 17.4 |
| Cc1ccc(CC2CC(=O)N(c3ccc(Cl)cn3)C2=O)cc1 (stereo not shown) | 9.15 |
| CC(=O)C1=C(c2ccccc2)NC(=O)NC1c1ccccc1 (stereo not shown) | 15.4 |
| O=c1c2ccccc2ncn1-c1ccc2c(c1)OCCO2 | 2.75 |
| CCOc1ccc(NC(=O)c2cc3cc4ccc(C)cc4nc3o2)cc1 | 5.98 |
| Cc1cc(C)nc(SCCN2CCCCC2)n1 | 14.5 |
| COc1ccccc1C(=O)NCCC(=O)NCc1cccs1 | 5.41 |
| C/C(=N\NC(=O)c1cccnc1)c1ccc(C)c([N+](=O)[O-])c1 | 3.07 |
| CCCc1cc(=O)oc2c3c(cc(OCC(=O)NCCN4CCOCC4)c12)OC(C)(C)CC3 | 3.57 |
| COCc1nnc(NC(=O)CCC2CCCCC2)s1 | 6.28 |
| COc1ccc(CCNC(=O)/C(=C/c2cccnc2)NC(=O)c2ccccc2)cc1OC | 12.7 |
| Cc1ccccc1NC(=O)CN1C(=O)S/C(=C/c2cccnc2)C1=O | 13.9 |
| CCCCn1nnc(NC(=O)c2ccc(-c3ccccc3[N+](=O)[O-])o2)n1 | 9.81 |
| CCN(CC)S(=O)(=O)c1ccc2oc(C(=O)O)c(C)c2c1 | 0.94 |
| O=c1c(NCCc2ccccc2)c(-c2ccccc2)c1=O | 21.6 |
| FC(F)c1nnc2ccc(Cl)nn12 | 22.4 |
| COc1cccc(C(=O)Nc2ccccc2F)c1 | 12.7 |
| Cc1sc(NC(=O)CSc2nnnn2C(C)C)c(C#N)c1C | 13.9 |
| Cl.NCCCC(N)(C(=O)O)C(F)F (stereo not shown) | 17 |
| CC(=O)Nc1ccc(C(=O)CN2C(=O)CSC2=O)cc1 | 5.53 |

| SMILES | hERG current change (%, negative = inhibition) at 1uM [%] |
| --- | --- |
| O=C(COc1ccc(Cl)cc1)NCc1nnc(SCC(=O)N2CCCC2)o1 | -3.96 |
| CN(CC(=O)Nc1ccc(Cl)c(C(F)(F)F)c1)C(=O)/C=C/c1cccs1 | 14.7 |
| CCOC(=O)c1c(C)n(C)c2ccc(O)c(CN(C)C)c12.O=C(O)C(=O)O | 0.986 |
| CC(=O)c1nn(-c2ccc(Cl)cc2)c(=O)[nH]c1=O | -8.86 |
| COc1ccc2c(-c3ccccc3)cc(SCC(=O)N(C)C)nc2c1 | 4.7 |
| CC1CCCCC1NC(=O)/C=C/c1nc2ccccc2s1 (stereo not shown) | 1.69 |
| CC(=O)c1ccc(NC(=O)CCn2c(=S)oc3ccccc32)cc1 | 11.8 |
| O=c1c2ccccc2nc2n1-c1ccccc1CCC2 | 11.8 |
| CCCCNC(=O)Cn1cnc2sc(C)c(S(=O)(=O)N3CCN(c4ncccn4)CC3)c2c1=O | 11.8 |
| COc1ccc(-c2nc3c(c(=O)[nH]c(=O)n3Cc3ccccc3)n2Cc2ccccc2)cc1 | -5.94 |
| CCc1ccc(-c2cc(C)no2)cc1S(=O)(=O)Nc1cc(C)ccn1 | 14.4 |
| CCC(C)NCCOCCOc1ccc(F)cc1.O=C(O)C(=O)O (stereo not shown) | 8.31 |
| CCOc1ccc(S(=O)(=O)n2c([N+](=O)[O-])cnc2C)c(C)c1C.O=C(O)C(=O)O | 11.8 |
| CC(=O)N1c2ccc(S(=O)(=O)N3CCC(C(=O)Nc4cccc(Cl)c4)CC3)cc2CC1C (stereo not shown) | 18.4 |
| O=C(CO/N=C/c1ccccc1OC(F)F)NC1CCCCC1 | 1.39 |
| CCCOC(=O)COc1cc(C)cc2oc(=O)c3c(c12)CCC3 | 13.8 |
| O=C(CCNS(=O)(=O)c1ccccc1C(F)(F)F)N1CCN(S(=O)(=O)c2cccc(Cl)c2)CC1 | 16 |
| Cc1ccc(-c2noc(CCC(=O)NCCCN3CCN(c4cccc(Cl)c4)CC3)n2)cc1 | 11.8 |
| O=C(NCc1ccccc1)C1=C[C@H](c2ccc3c(c2)OCO3)C[C@H](OCCCCO)O1 | 2.86 |
| Cc1ccc(S(=O)(=O)NC(CC(=O)n2nc(C)cc2C)c2ccccc2)cc1 (stereo not shown) | 11.2 |
| CS(=O)(=O)N(CC(=O)Nc1ccccc1C(=O)N1CCCC1)c1ccc2c(c1)OCO2 | 4.42 |
| COC(=O)[C@]1(C)CCC[C@@]2(C)C3CC[C@]4(OC(C)=O)C[C@@]3(CCC21)CC4=NO (stereo partly shown) | 0.0891 |
